# According to the RNAGym collection of RNA variant scans (doi:10.7554/elife.90254):
# The source gives no read counts; variants with many changes may rest on few reads.
# B1: LINE1-mini (parent)
# chain: GGCAGAGCUCAACACAGCGUGGCAAAGUGGCUGUGGCUAGACUGCC
# Variants of: B1
# Assay: self-cleavage, relative activity (ratio to wild type); higher = more cleavage; in vitro, sequencing; the parent is a self-cleaving ribozyme
row,Variant,self-cleavage
1,C3U A6C A11C C18G U20A U34C C37U,0.01
2,C3G G27U U28A U32G,0.06
3,C3G G33C A39U C46G,0.04
4,C3G U9G G29U A41U,0.14
5,C3U A6U C46G,0.41
6,C3U A4C G5C C8A U20A A26U,0.14
7,C3G G5U G7U A26C,0.16
8,C3G G29U U32C A39C G44A,0.05
9,C3G G7C G33A,0.01
10,C3G G7C G33C,0.01
11,C3G U20G G29U A39G,0.42
12,C3U A11G C15A,0.05
13,C3G G5C C8A A39U,0.21
14,C3G C23A A25G C31A U38C,0.08
15,C3U A6C A11G A16G C37A,0.01
16,C3U A4U G27C C37G,0.04
17,C3U A12C G22C A24U,0.02
18,C3U A6U C13A A24C G30A U43A,0.27
19,C3G G17C G33U U38C C45G C46U,0.06
20,C3G G7C C8G C23A,0.09
21,C3G G17U G22A U32C U34A,0.11

row,Variant,self-cleavage
1,C3U A6C G7U,0.11
2,C3G G7C C10U A12C G29A,0.02
3,C3G G21C A24G,0.06
4,C3G G19U G30C C46A,0.05
5,C3U A4U G29A A39C,0.07
6,C3G G5A G35U C45U,0.15
7,C3G U9A A16U G33U,0.05
8,C3G U20A G21A C46A,0.16
9,C3U A11C C13G G35U C45U,0.02
10,C3U A6G G21U,0.14
11,C3G G36U A41G,0.06
12,C3G G30C C46G,0.16
13,C3G G17A G19A A25G G27C G35C C37A U38C,0.04
14,C3G C31A U32G,0.09
15,C3G C23A C42G,0
16,C3G C31G C45G,0.17
17,C3U A6C U9A C13U A14U G33A,0.06
18,C3U A4U C10G U32G U43G,0.01
19,C3G G7C U20A G35U,0
20,C3U A6C C15U,0.11
21,C3U A4G G40U C45G,0.33

row,Variant,self-cleavage
1,C3G G29C G33A G40A,0.08
2,C3U A4G G29U G33U,0.21
3,C3U A6G G36A,0.1
4,C3G U32G G40C U43A,0.05
5,C3U A4C C23A C31A G33C G40A,0.25
6,C3G G22C G29C G40C C46U,0.04
7,C3G G22U A25C,0.33
8,C3U A4C A12G,0.09
9,C3U A4G G22U G33U,0.12
10,C3G G5A U28A C46A,0.03
11,C3U A11G C13U A25U,0.08
12,C3G G19U G21U G22A G27U U43C,0.02
13,C3G G21A A26C,0.28
14,C3G U9A A39C,0.03
15,C3G C23G C45A,0.11
16,C3G G5C A11U G22A G36U,0.02
17,C3G G5U U9G A41C,0.03
18,C3G G19C U28G U34C,0.15
19,C3U A4U A6C A12U C31U,0.03
20,C3U A6U C13U A14U U20A G30A G33A A39U C46U,0.08
21,C3U A12C A25U G36A,0.27

row,Variant,self-cleavage
1,C3U A11C G19U,0.02
2,C3G U20A G21A C23U G33U A39G G40U,0.06
3,C3G U20G G22A G29C,0.1
4,C3U A6C A14C G29A U34A A39C,0.14
5,C3G U20G G44U,0.91
6,C3G G5A A6U U43A G44A,0.04
7,C3G G27U U34C G35C A39C,0.02
8,C3G U9A G22A,0.25
9,C3U A6U G27C G30C C37G,0.1
10,C3G G27A U32C,0.04
11,C3U A6C C8A C10A C13U U32G,0.02
12,C3G G7A C10A C15A A25G,0.03
13,C3U A4U A11U G21U C46G,0.02
14,C3U A6G C42A,0.11
15,C3G G5U C15U A25G G27U,0.02
16,C3U A11G G19C,0.07
17,C3U A4C G5A C42U,0.13
18,C3G G7A C18U,1.42
19,C3G G5U G29U G30U G33A A41U,0.45
20,C3G G7C U32C,0.23
